# Test results published in PubChem BioAssay AID651820 (National Center for Advancing Translational Sciences (NCATS), 2012).
# Among all 340,000 compounds or so, about 12,000 (3.5%) were called active. Inconclusive means that the source gave no clear call. Such entries were picked first, then a sample of the others. Calls follow the shape of the dose curve; as a rule, active = well fitted inhibition curve with a large enough effect; inconclusive = small, poorly fitted or top-dose-only effect, or another doubt; inactive = no such curve, though single readings can be large or run the other way. No potency is given beside an inconclusive call; the fits are too rough.
# Experiment: qHTS Assay for Inhibitors of Hepatitis C Virus (HCV)
# Conditions: Huh7.5.1 HCVcc-Cre (HCVcc is cell-culture hepatitis C virus) infection, luciferase reporter, 44 h; activity change, negative = inhibition: at 41.8 µM (top of the series) unless noted
# Method in brief: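 Cells seeded at 1,000/well and cultured 4 h, then compounds added followed by HCVcc-Cre virus (~0.5 moi). After 44 h further culture, luciferase substrate was added, plates held 15 min at room temperature, and luminescence read for 15 sec.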
# % is scaled to controls: 0 for no effect and ±100 for the full control effect; potency is read from the fitted curve at half-maximal effect; tags tell the direction and shape of the fitted curve.
Structure (SMILES),Potency,"activity change, negative = inhibition"
CCOc1ccc(C(=O)Nc2cnn(Cc3ccc(Cl)c(Cl)c3)c2)cc1,active: 12.6 µM,–
Cc1nnc(Sc2nc3c(c(=O)n(C)c(=O)n3C)n2Cc2ccc(Cl)cc2)s1,"inconclusive [inhibitor, partial curve]",–
Cc1cc2cc(C#N)c(NCCNC(=S)NCCCN3CCOCC3)nc2cc1C,"inconclusive [inhibitor, full curve]",–
COc1ccccc1N1CCN(C(=O)CSc2nnc(NC(=O)C3CCC3)s2)CC1,"inconclusive [inhibitor, single point]",–
CC(NC(=O)COc1ccc(N(C)S(=O)(=O)c2ccccc2)cc1)c1ccccc1 (stereo not given),"inconclusive [inhibitor, single point]",–
CCOc1ccc2nc(CN3CCN(Cc4ccsc4)C(CCO)C3)ccc2c1 (stereo not given),"inconclusive [inhibitor, single point]",–
O=C(NN=C1C2CC3CC(C2)CC1C3)c1cccc(S(=O)(=O)N2CCOCC2)c1,"inconclusive [inhibitor, single point]",–
O=C(NC1CCN(C(=O)N2c3ccccc3Sc3ccccc32)CC1)c1ccco1,"inconclusive [inhibitor, single point]",–
O=C1NC(c2ccc(Br)cc2)=N/C1=C/c1ccco1,–,inactive: 0.263%
Cc1nn(C)c(C)c1CN(C)S(=O)(=O)c1ccc(F)cc1,"inconclusive [inhibitor, single point]",–
Oc1ccc2ccccc2c1Br,"inconclusive [inhibitor, partial curve, poor fit]",–
CC(C)CC1NC(=O)N(CC(=O)N(C)C2CCCCC2)C1=O (stereo not given),–,inactive: 11.6%
Cn1cc(C(=O)NC2CCCCC2)c(=O)c2cc(S(=O)(=O)N3CCOCC3)ccc21,–,inactive: 12.7%
CCC1OC(c2ccc([N+](=O)[O-])cc2)=Nc2ccccc21 (stereo not given),"inconclusive [inhibitor, partial curve]",–
CC1CCc2c(sc3nc(CN4CCN(S(=O)(=O)c5ccccc5[N+](=O)[O-])CC4)[nH]c(=O)c23)C1 (stereo not given),"inconclusive [inhibitor, single point]",–
Cn1cc(CN2CCC(Oc3ccc(C(=O)N4CCCC4)cc3)CC2)cn1,–,inactive: 4.78%
COc1cc(OC)c(C(=O)/C=C/c2ccccc2)c(O)c1O,–,inactive: -18.1%
Cc1cc(C)cc(-n2c(C)cc(/C=N\NC(=O)COc3cccc4cccnc34)c2C)c1,"inconclusive [inhibitor, single point]",–
Cc1cc(C)nc(NC(=NCCc2c[nH]c3ccccc23)NC(=O)Nc2ccc(Cl)cc2)n1,active: 11.2 µM,–
O=C(COC(=O)c1cc(S(=O)(=O)N2CCCCC2)ccc1N1CCOCC1)c1ccc(F)cc1,"inconclusive [inhibitor, full curve]",–
Cc1cccc(NS(=O)(=O)c2ccc(C)c(C(=O)NCc3ccncc3)c2)c1,–,inactive: -27.3%
COc1cccc(-c2sc3ccccc3c2-c2ccc(OCCN3CCCCC3)cc2)c1,"inconclusive [inhibitor, full curve]",–
Cc1nnc(SCC(=O)NCC2CCCO2)n1Cc1ccccc1 (stereo not given),–,inactive: 8.73%
O=C(Nc1cccc(-c2nc3ncccc3o2)c1)c1ccccc1,"inconclusive [inhibitor, partial curve]",–

Structure (SMILES),Potency,"activity change, negative = inhibition"
Cc1ccc(C)c(N2CCN(C(=O)CCS(=O)(=O)c3ccc4c(c3)NC(=O)CO4)CC2)c1,"inconclusive [inhibitor, partial curve]",–
O=C1c2ccccc2[C@@H]2C[C@@H](O)[C@H](Nc3ccccc3Cl)CCN12,–,inactive: -5.58%
CCOC(=O)c1sc2nc(CC(=O)OC)nc(NCCN3CCOCC3)c2c1C,"inconclusive [inhibitor, full curve]",–
CN(C)CCCN(C(=O)c1ccc(S(=O)(=O)N2CCCCCC2)cc1)c1nc2ccc(Br)cc2s1,"inconclusive [inhibitor, partial curve]",–
COc1ccc(C(CNC(=O)c2cccc(S(=O)(=O)Nc3ccccc3OC)c2)N2CCOCC2)cc1 (stereo not given),–,inactive: -1.26%
C=CC[C@@H](CC(=O)N[C@@H](CO)Cc1ccccc1)C(=O)N[C@H](COC(=O)[C@H](CC=C)CC(=O)OC(C)(C)C)Cc1c[nH]c2ccccc12,"inconclusive [inhibitor, single point]",–
COc1cc(CN2CC=C(c3ccc(F)cc3)CC2)cc(OC)c1,–,inactive: -14.8%
OCC1(CCOc2ccccc2)CCN(Cc2cccn2-c2ncccn2)CC1,–,inactive: 0.418%
O=C(NC1CCCc2ccccc21)C1CCC(CNS(=O)(=O)c2cccc3nsnc23)CC1 (stereo not given),–,inactive: 1.23%
COc1ccc(Cl)cc1NC(=O)C1CCN(C(=O)C2CC(=O)N(c3ccc(C)cc3)C2)CC1 (stereo not given),–,inactive: -25.3%
CCN(CC)Cc1ccccc1Sc1ccccc1,"inconclusive [inhibitor, single point]",–
COc1cc(CCN2C(=O)N[C@@H](c3cccc(C(F)(F)F)c3)C(C(C)=O)=C2C)cc(OC)c1OC,"inconclusive [inhibitor, partial curve]",–
CCCn1nc2ccccc2c1P(=N)(N1CCOCC1)N1CCOCC1,–,inactive: 8.32%
CCOC(=O)Cc1csc(NC(=O)CSc2ncnc3c2cnn3-c2ccccc2Cl)n1,"inconclusive [inhibitor, single point]",–
CNCc1c(OCc2ccc(F)cc2)ccc2ccccc12,–,inactive: -3.04%
Nc1cccc2cccc([N+](=O)[O-])c12,–,inactive: 19.1%
COc1cc2c(-c3ccc4[nH]ccc4c3)c(-c3ccc(C#N)cc3)oc(=O)c2cc1OC,active: 11.2 µM,–
O=C(Nc1sc2c(c1C(=O)O)CCCC2)c1ccc(Cl)cc1,"inconclusive [inhibitor, single point]",–
COc1ccc(C(=O)/C=C/c2ccc(OC)cc2OC)c(O)c1,"inconclusive [inhibitor, full curve]",–
CC(=O)Oc1ccc(N(c2ccccc2)S(=O)(=O)c2ccc(C)cc2)cc1,"inconclusive [inhibitor, single point]",–
CCN(CC)S(=O)(=O)c1ccc(NC(=O)c2c(-c3ccccc3)noc2C)cc1,"inconclusive [inhibitor, partial curve]",–
CCOc1ccccc1N(C)C(=O)CCS(=O)(=O)c1ccc2c(c1)NC(=O)CO2,"inconclusive [inhibitor, single point]",–
O=C(Nc1ccc(F)cc1)Nc1cc(OCC(F)(F)F)cc(OCC(F)(F)F)c1,"inconclusive [inhibitor, partial curve]",–
CC(C)[C@H](NC(N)=O)C(=O)Nc1ccc(Oc2ccccc2)cc1,"inconclusive [inhibitor, partial curve]",–

Structure (SMILES),Potency,"activity change, negative = inhibition"
O=c1cc(-c2ccncc2)oc2ccccc12,"inconclusive [inhibitor, partial curve]",–
Cc1c(N=Cc2ccc(Cl)o2)c(=O)n(-c2ccccc2)n1C,–,inactive: -5%
C=CCc1cc(Cl)ccc1OCCOCCNCCOC,"inconclusive [inhibitor, single point]",–
CCOC(=O)c1ccc(NC(=O)N2CCc3ccccc3C2)cc1,"inconclusive [inhibitor, single point]",–
CC(C)C[C@H](CO)N(Cc1ccccc1)S(=O)(=O)N(Cc1ccccc1)[C@@H](CO)CC(C)C,"inconclusive [inhibitor, single point]",–
CN(C)S(=O)(=O)c1cccc(NC(=S)N/N=C/C(c2ccccc2)c2ccccc2)c1,"inconclusive [inhibitor, full curve, poor fit]",–
Cc1sc2ncnc(SCC(=O)NNC(=O)COc3cccc4ccccc34)c2c1C,"inconclusive [inhibitor, single point]",–
COc1ccc(-n2c(N3CCN(C)CC3)nc3sc4c(c3c2=O)CCCCC4)cc1,active: 12.6 µM,–
Cc1cc(C)c2cc(CN(Cc3nnnn3C3CCCCC3)CC3CCCO3)c(=O)[nH]c2c1 (stereo not given),"inconclusive [inhibitor, partial curve]",–
Cc1ccc(C)c(Cn2c(C(=O)OC(C)C)cc3c2ccn3C)c1,–,inactive: -4.65%
CC(C)(C)CC(=O)NC(=S)NCCc1ccccc1,–,inactive: -7.18%
CCOC(=O)c1cnc(SCc2nc(N)nc(Nc3ccc(F)cc3)n2)nc1N,"inconclusive [inhibitor, partial curve]",–
CC(=O)c1cc2c(cc1NC(=O)Cc1ccsc1)OCO2,active: 5.62 µM,–
O=C(c1cccc(Oc2ccc([N+](=O)[O-])cc2Cl)c1)N1CCOCC1,"inconclusive [inhibitor, single point]",–
O=C(NCc1nc2ncc(Br)cc2[nH]1)c1ccccc1,–,inactive: -1.21%
COc1ccccc1OCc1nc(C#N)c(NCCCn2ccnc2)o1,"inconclusive [inhibitor, partial curve]",–
O=[N+]([O-])c1cccc(C=Nc2cc3c(cc2Br)OCCO3)c1,"inconclusive [inhibitor, partial curve]",–
CC1(C)CC2CC(C)(CN2S(=O)(=O)c2ccccc2[N+](=O)[O-])C1 (stereo not given),"inconclusive [inhibitor, single point]",–
O=C(NN1CCOCC1)c1cccc(F)c1,–,inactive: 28%
COc1ccc(Cl)cc1NC(=O)C1CC(=O)N(c2ccc(F)cc2)C1 (stereo not given),"inconclusive [inhibitor, partial curve]",–
CC(C)(C)n1ncc2c(=O)n(CC(=O)c3ccccc3)cnc21,–,inactive: -15.8%
CCOc1ccccc1N/C(=C(/C(Cl)=C(Cl)Cl)[N+](=O)[O-])n1cncn1,"inconclusive [inhibitor, partial curve]",–
